No constants are given. Whether binding was seen depends on the method and setting. For some assays here: Binding seen in cells or lysates may run through a third protein. Some entries that bind do so weakly or less than the wild type. For some assays here: Where a sequence is shown, tags or fusion partners need not be part of it. Blank lines part the entries; values can stand above or below the molecule they belong to.
Legend:
[1] = target: T1, PYL5 (yeast two hybrid construct) (Arabidopsis thaliana) (UniProt Q9FLB1); assay: two-hybrid; yeast PJ69-4A, drop tests on SD-LWH with 2.5 mM 3-AT, without ABA, 30 °C, photos at days 3, 5 and 10
T1 sequence: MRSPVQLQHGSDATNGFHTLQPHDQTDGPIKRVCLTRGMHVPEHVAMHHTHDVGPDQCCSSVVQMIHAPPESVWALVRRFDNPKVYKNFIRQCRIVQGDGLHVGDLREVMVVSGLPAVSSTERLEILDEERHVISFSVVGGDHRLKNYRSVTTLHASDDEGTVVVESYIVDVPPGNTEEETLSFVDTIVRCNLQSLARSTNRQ

Amino acid sequences for entries named in this document (tags omitted). A change or cut given only in a name is not applied to a line headed by its entry.
UniProt Q39204: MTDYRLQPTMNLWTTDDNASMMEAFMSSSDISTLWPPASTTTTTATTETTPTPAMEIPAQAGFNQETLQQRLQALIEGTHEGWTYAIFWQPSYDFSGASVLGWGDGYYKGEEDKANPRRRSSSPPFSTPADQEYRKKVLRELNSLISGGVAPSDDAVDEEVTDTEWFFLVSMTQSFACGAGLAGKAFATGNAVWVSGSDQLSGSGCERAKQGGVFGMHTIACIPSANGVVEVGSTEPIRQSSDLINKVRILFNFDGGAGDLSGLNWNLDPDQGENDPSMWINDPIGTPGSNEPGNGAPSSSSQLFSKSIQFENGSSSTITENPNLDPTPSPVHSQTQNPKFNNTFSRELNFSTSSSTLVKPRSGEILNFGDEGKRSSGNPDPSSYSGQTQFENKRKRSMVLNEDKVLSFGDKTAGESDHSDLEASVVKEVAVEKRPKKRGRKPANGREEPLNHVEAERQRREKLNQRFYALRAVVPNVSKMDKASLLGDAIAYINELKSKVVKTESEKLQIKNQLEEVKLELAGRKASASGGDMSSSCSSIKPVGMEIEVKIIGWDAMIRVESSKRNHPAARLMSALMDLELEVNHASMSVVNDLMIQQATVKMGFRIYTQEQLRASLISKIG
UniProt P49597: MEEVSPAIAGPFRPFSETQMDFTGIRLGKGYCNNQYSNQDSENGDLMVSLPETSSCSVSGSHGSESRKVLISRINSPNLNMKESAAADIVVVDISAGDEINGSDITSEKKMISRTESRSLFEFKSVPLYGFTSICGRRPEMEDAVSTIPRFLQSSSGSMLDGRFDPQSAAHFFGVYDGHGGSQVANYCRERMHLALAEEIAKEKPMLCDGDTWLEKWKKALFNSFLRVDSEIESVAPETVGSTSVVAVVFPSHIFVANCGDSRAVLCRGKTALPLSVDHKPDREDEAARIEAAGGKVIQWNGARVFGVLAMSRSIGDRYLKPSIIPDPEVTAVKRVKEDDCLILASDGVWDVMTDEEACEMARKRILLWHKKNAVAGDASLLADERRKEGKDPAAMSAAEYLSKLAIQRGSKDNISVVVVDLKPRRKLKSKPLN
UniProt Q9FIP9: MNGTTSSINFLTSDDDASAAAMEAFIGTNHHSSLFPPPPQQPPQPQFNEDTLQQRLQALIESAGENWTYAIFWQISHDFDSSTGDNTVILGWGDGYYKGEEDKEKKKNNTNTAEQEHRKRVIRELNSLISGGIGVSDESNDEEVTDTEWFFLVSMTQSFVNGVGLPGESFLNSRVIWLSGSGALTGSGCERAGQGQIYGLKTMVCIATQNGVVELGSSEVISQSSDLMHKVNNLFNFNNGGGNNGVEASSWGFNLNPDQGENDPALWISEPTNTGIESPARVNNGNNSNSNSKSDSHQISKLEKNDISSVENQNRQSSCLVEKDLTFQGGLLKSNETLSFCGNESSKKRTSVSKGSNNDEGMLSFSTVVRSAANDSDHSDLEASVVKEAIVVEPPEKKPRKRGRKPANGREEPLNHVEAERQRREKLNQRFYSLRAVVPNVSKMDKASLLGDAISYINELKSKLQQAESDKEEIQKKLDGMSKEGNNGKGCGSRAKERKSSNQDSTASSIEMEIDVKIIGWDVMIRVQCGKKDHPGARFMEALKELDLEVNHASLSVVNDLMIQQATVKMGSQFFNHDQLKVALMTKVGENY

[2] = target: T2, BD-PYL6 (ABA receptor PYL6/RCAR9 in pGBT9.BS) (Arabidopsis thaliana) (UniProt Q8S8E3); assay: as above
T2 sequence: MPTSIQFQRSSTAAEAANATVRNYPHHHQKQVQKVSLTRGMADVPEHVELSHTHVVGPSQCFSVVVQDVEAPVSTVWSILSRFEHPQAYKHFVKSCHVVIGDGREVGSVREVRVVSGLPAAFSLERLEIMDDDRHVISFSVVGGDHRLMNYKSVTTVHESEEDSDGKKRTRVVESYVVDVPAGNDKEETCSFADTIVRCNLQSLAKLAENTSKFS

[3] = target: T1, PYL5 (yeast two hybrid construct) (Arabidopsis thaliana); assay: two-hybrid; yeast PJ69-4A, drop tests on SD-LWH with 2.5 mM 3-AT, with 10 μM ABA, 30 °C, photos at days 3, 5 and 10
[4] = target: T2, BD-PYL6 (ABA receptor PYL6/RCAR9 in pGBT9.BS) (Arabidopsis thaliana); assay: as above
[5] = target: T3, Yc-PYL6 (PYL6 in pSPYCE(MR)) (Arabidopsis thaliana) (UniProt Q8S8E3); assay: split reporter; BiFC with split YFP in N. benthamiana leaves, 3–5 days after infiltration, confocal microscopy
T3 sequence: T2 sequence

[6] = target: HF-MYC2 (6xHIS-3XFlag MYC2) (Arabidopsis thaliana) (UniProt Q39204); assay: co-IP; co-expression in N. benthamiana leaves; extract split and treated with 50 μM ABA or ethanol (mock); anti-Flag M2 magnetic beads against HF-MYC2, 4 °C, 2 hours, elution with 3x FLAG peptide; blot with anti-YFP

binding [1]: binds | binding [2]: binds | binding [3]: binds | binding [4]: binds
Molecule: ABI1 (yeast two hybrid construct) (from UniProt P49597 1-434) (enzyme)

binding [2]: no binding | binding [4]: no binding
Molecule: MYC2 residues 1–373 (from UniProt Q39204 1-373) (domain or fragment)

binding [1]: no binding | binding [2]: no binding | binding [3]: no binding | binding [4]: no binding
Molecule: MYC3 (yeast two hybrid construct) (from UniProt Q9FIP9 1-592)

binding [5]: binds
Molecule: Yn-ABI1 (from UniProt P49597 1-434) (enzyme)

binding [2]: binds | binding [4]: binds
Molecule: truncated MYC2 (141–623) (from UniProt Q39204 141-623) (domain or fragment)

binding [6]: binds
B1: Venus-PYL6 (receptor, UniProt Q8S8E3 1-215)
chain: T2 sequence

Source: article PMC4928087
